The source of these data is a collection of fitness landscapes (doi:10.1016/j.celrep.2020.107928).

In all, about 81,000 sequences were measured (“one-hybrid fitness for binding parS DNA”: median about -0.17, highest 2% from about 0.51 on). The list shows a part of the results.

The chains are these.
B1: Caulobacter ParB omega fusion; a variant is named by its letters at X, in order, B8GW30 (parent)
chain: MESVVVGEPGMSEGRRGLGRGLSALLGEVDAAPAQAPGEQLGGSREAPIEILQRNPDQPRRTFREEDLEDLSNSIREKGVLQPILVRPSPDTAGEYQIVAGERAWRAAQRAGLKTVPIMVRELDDLAVLEIGIIENVQRADLNVLEEALSYKVLMEKFERTQENIAQTIGKSXSHVANXMRLLXLPDEVQSYLVSGELTAXHARAIAAAADPVALAKQIIEGGLSVRETEALARKAPNLSAGKSKGGRPPRVKDTDTQALESDLSSVLGLDVSIDHRGSTGTLTITYATLEQLDDLCNRLTRGI

In this assay the parent is B1. Put plainly: one-hybrid fitness for binding parS DNA (scaled: cognate 1, non-cognate 0); higher = stronger binding. The note with it: with parS DNA site. The essentials: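 On M9-minus-histidine containing 0.1 mM IPTG and 5 mM 3-AT, E. coli USO cells with a HIS3 reporter, site 19 bp from the promoter, grew 48 hours at 37°C to select Caulobacter ParB libraries randomised at four specificity codons. Plasmids from before and after were Illumina-sequenced, with three replicate libraries pooled and variants under 10 reads left out. Fitness is the log change in variant-to-wild-type read ratio, rescaled against cognate and non-cognate.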
With IMER, the “one-hybrid fitness for binding parS DNA” value is not above 0.2.

Consider GDIY, for which the “one-hybrid fitness for binding parS DNA” value is not above 0.2.

PLAV: the “one-hybrid fitness for binding parS DNA” value was not above 0.2.

With VTGF, the “one-hybrid fitness for binding parS DNA” value is not above 0.2.

On to ELMC, for which the “one-hybrid fitness for binding parS DNA” value was 0.213.

Turning to WLVC, the “one-hybrid fitness for binding parS DNA” value is not above 0.2.

Take RIST: the “one-hybrid fitness for binding parS DNA” value is 0.929.

Take THSP: the “one-hybrid fitness for binding parS DNA” value was not above 0.2.

As to FRHS, the “one-hybrid fitness for binding parS DNA” value is not above 0.2.

Take QLKL: the “one-hybrid fitness for binding parS DNA” value is not above 0.2.

For IDGG, the “one-hybrid fitness for binding parS DNA” value is not above 0.2.

For FGKV, the “one-hybrid fitness for binding parS DNA” value was not above 0.2.

Take YIWR: the “one-hybrid fitness for binding parS DNA” value is not above 0.2.

Take SLCS: the “one-hybrid fitness for binding parS DNA” value is not above 0.2.

As for VGYK, the “one-hybrid fitness for binding parS DNA” value was not above 0.2.

For the variant SHSN, the “one-hybrid fitness for binding parS DNA” value is not above 0.2.

For AEML, the “one-hybrid fitness for binding parS DNA” value was not above 0.2.

With LRES, the “one-hybrid fitness for binding parS DNA” value was not above 0.2.

Turning to WYIT, the “one-hybrid fitness for binding parS DNA” value is not above 0.2.

As for IMVG, the “one-hybrid fitness for binding parS DNA” value was not above 0.2.

On to MSNA, for which the “one-hybrid fitness for binding parS DNA” value was not above 0.2.

With RMES, the “one-hybrid fitness for binding parS DNA” value was determined as 0.956.

In the case of QVIT, the “one-hybrid fitness for binding parS DNA” value is not above 0.2.

As for CRAT, the “one-hybrid fitness for binding parS DNA” value was not above 0.2.

For EIRF, the “one-hybrid fitness for binding parS DNA” value is not above 0.2.

With QPVD, the “one-hybrid fitness for binding parS DNA” value was not above 0.2.

On to VGLI, for which the “one-hybrid fitness for binding parS DNA” value was not above 0.2.

Consider IYES, for which the “one-hybrid fitness for binding parS DNA” value was not above 0.2.

Take EKYG: the “one-hybrid fitness for binding parS DNA” value was not above 0.2.

Turning to DSYR, the “one-hybrid fitness for binding parS DNA” value was not above 0.2.

For VSIG, the “one-hybrid fitness for binding parS DNA” value is not above 0.2.

As to SAAE, the “one-hybrid fitness for binding parS DNA” value was not above 0.2.

As for VIPW, the “one-hybrid fitness for binding parS DNA” value is not above 0.2.

Regarding AMHV, the “one-hybrid fitness for binding parS DNA” value was not above 0.2.

With RPYS, the “one-hybrid fitness for binding parS DNA” value was not above 0.2.

With WRRC, the “one-hybrid fitness for binding parS DNA” value was not above 0.2.

KSAW: the “one-hybrid fitness for binding parS DNA” value was not above 0.2.

Consider GTLT, for which the “one-hybrid fitness for binding parS DNA” value is not above 0.2.

Regarding WRYG, the “one-hybrid fitness for binding parS DNA” value is not above 0.2.

Take SKSK: the “one-hybrid fitness for binding parS DNA” value was not above 0.2.

In the case of VKGM, the “one-hybrid fitness for binding parS DNA” value is not above 0.2.

Regarding MCTT, the “one-hybrid fitness for binding parS DNA” value was not above 0.2.

Turning to YVGG, the “one-hybrid fitness for binding parS DNA” value was not above 0.2.

NTTY: the “one-hybrid fitness for binding parS DNA” value is not above 0.2.

Regarding DHHC, the “one-hybrid fitness for binding parS DNA” value is not above 0.2.

On to VHHS, for which the “one-hybrid fitness for binding parS DNA” value is not above 0.2.

As for RGEW, the “one-hybrid fitness for binding parS DNA” value was not above 0.2.

For the variant VKKV, the “one-hybrid fitness for binding parS DNA” value is not above 0.2.

For the variant GTPT, the “one-hybrid fitness for binding parS DNA” value was not above 0.2.

As to ARGA, the “one-hybrid fitness for binding parS DNA” value was not above 0.2.

For the variant LYND, the “one-hybrid fitness for binding parS DNA” value was not above 0.2.

As for GLWS, the “one-hybrid fitness for binding parS DNA” value was not above 0.2.

Consider EHCR, for which the “one-hybrid fitness for binding parS DNA” value was not above 0.2.

As to QHCW, the “one-hybrid fitness for binding parS DNA” value was not above 0.2.

For the variant TYEN, the “one-hybrid fitness for binding parS DNA” value is not above 0.2.

Regarding RNVM, the “one-hybrid fitness for binding parS DNA” value was not above 0.2.

As for GGNS, the “one-hybrid fitness for binding parS DNA” value was not above 0.2.

GSGL: the “one-hybrid fitness for binding parS DNA” value was not above 0.2.

On to PQTK, for which the “one-hybrid fitness for binding parS DNA” value was not above 0.2.

For VAGG, the “one-hybrid fitness for binding parS DNA” value was not above 0.2.

Consider PLER, for which the “one-hybrid fitness for binding parS DNA” value is not above 0.2.

Regarding LMWA, the “one-hybrid fitness for binding parS DNA” value was not above 0.2.

For PLWI, the “one-hybrid fitness for binding parS DNA” value was not above 0.2.

Consider QTYM, for which the “one-hybrid fitness for binding parS DNA” value was not above 0.2.

Take RCDM: the “one-hybrid fitness for binding parS DNA” value stood at 0.308.

Take ANRI: the “one-hybrid fitness for binding parS DNA” value was not above 0.2.

Consider RESI, for which the “one-hybrid fitness for binding parS DNA” value is not above 0.2.

Consider QVLL, for which the “one-hybrid fitness for binding parS DNA” value was not above 0.2.

In the case of KMVW, the “one-hybrid fitness for binding parS DNA” value is not above 0.2.

For the variant TTHS, the “one-hybrid fitness for binding parS DNA” value was not above 0.2.

For RCNE, the “one-hybrid fitness for binding parS DNA” value is not above 0.2.

For the variant SSLQ, the “one-hybrid fitness for binding parS DNA” value was not above 0.2.

Take NVIR: the “one-hybrid fitness for binding parS DNA” value is not above 0.2.

Consider TVKI, for which the “one-hybrid fitness for binding parS DNA” value is not above 0.2.

In the case of CSQW, the “one-hybrid fitness for binding parS DNA” value was not above 0.2.

Take RSYD: the “one-hybrid fitness for binding parS DNA” value was not above 0.2.

SRES: the “one-hybrid fitness for binding parS DNA” value was not above 0.2.

YPKG: the “one-hybrid fitness for binding parS DNA” value is not above 0.2.

For the variant YPTI, the “one-hybrid fitness for binding parS DNA” value was not above 0.2.

In the case of RTAW, the “one-hybrid fitness for binding parS DNA” value is 0.243.

On to RIQY, for which the “one-hybrid fitness for binding parS DNA” value is 0.442.

EFET: the “one-hybrid fitness for binding parS DNA” value was not above 0.2.

On to EQYC, for which the “one-hybrid fitness for binding parS DNA” value was not above 0.2.

Regarding RHEN, the “one-hybrid fitness for binding parS DNA” value worked out at 0.369.

For QLGC, the “one-hybrid fitness for binding parS DNA” value was not above 0.2.

Turning to RSNL, the “one-hybrid fitness for binding parS DNA” value is not above 0.2.

With YLTM, the “one-hybrid fitness for binding parS DNA” value is not above 0.2.

Consider HLQV, for which the “one-hybrid fitness for binding parS DNA” value was not above 0.2.

Turning to TNLS, the “one-hybrid fitness for binding parS DNA” value is not above 0.2.

Turning to SYWD, the “one-hybrid fitness for binding parS DNA” value is not above 0.2.

HMAW: the “one-hybrid fitness for binding parS DNA” value was not above 0.2.

Regarding WSGG, the “one-hybrid fitness for binding parS DNA” value was not above 0.2.

Take RLVA: the “one-hybrid fitness for binding parS DNA” value is 0.567.

With DFAM, the “one-hybrid fitness for binding parS DNA” value was not above 0.2.

TCNC: the “one-hybrid fitness for binding parS DNA” value was not above 0.2.

As to YLAL, the “one-hybrid fitness for binding parS DNA” value is not above 0.2.

As to RPLS, the “one-hybrid fitness for binding parS DNA” value was not above 0.2.

On to VSSE, for which the “one-hybrid fitness for binding parS DNA” value was not above 0.2.

Regarding VEDG, the “one-hybrid fitness for binding parS DNA” value is not above 0.2.

YTAC: the “one-hybrid fitness for binding parS DNA” value was not above 0.2.

Regarding HVYV, the “one-hybrid fitness for binding parS DNA” value was not above 0.2.

As to PGRR, the “one-hybrid fitness for binding parS DNA” value is not above 0.2.

With MVHQ, the “one-hybrid fitness for binding parS DNA” value is not above 0.2.

Take DCRA: the “one-hybrid fitness for binding parS DNA” value is not above 0.2.

With AGHR, the “one-hybrid fitness for binding parS DNA” value was not above 0.2.

For WSAS, the “one-hybrid fitness for binding parS DNA” value is not above 0.2.

As for YPIL, the “one-hybrid fitness for binding parS DNA” value was not above 0.2.

In the case of LQGG, the “one-hybrid fitness for binding parS DNA” value is not above 0.2.

For KFAG, the “one-hybrid fitness for binding parS DNA” value was not above 0.2.

For PWAC, the “one-hybrid fitness for binding parS DNA” value is not above 0.2.

As to WDNS, the “one-hybrid fitness for binding parS DNA” value was not above 0.2.

Consider GPTG, for which the “one-hybrid fitness for binding parS DNA” value is not above 0.2.

As for SPWA, the “one-hybrid fitness for binding parS DNA” value is not above 0.2.

With CANS, the “one-hybrid fitness for binding parS DNA” value was not above 0.2.

For ADFT, the “one-hybrid fitness for binding parS DNA” value was not above 0.2.

For ADSC, the “one-hybrid fitness for binding parS DNA” value is not above 0.2.

Regarding PASR, the “one-hybrid fitness for binding parS DNA” value is not above 0.2.

Take MIHS: the “one-hybrid fitness for binding parS DNA” value was not above 0.2.

As for RVQS, the “one-hybrid fitness for binding parS DNA” value came to 0.989.

Consider FLYK, for which the “one-hybrid fitness for binding parS DNA” value is not above 0.2.

For GREE, the “one-hybrid fitness for binding parS DNA” value is not above 0.2.

For the variant HSYK, the “one-hybrid fitness for binding parS DNA” value is not above 0.2.

Consider WTYR, for which the “one-hybrid fitness for binding parS DNA” value was not above 0.2.

Regarding DGYR, the “one-hybrid fitness for binding parS DNA” value was not above 0.2.

For KKNY, the “one-hybrid fitness for binding parS DNA” value was not above 0.2.

As for PWNF, the “one-hybrid fitness for binding parS DNA” value is not above 0.2.

As for ARPK, the “one-hybrid fitness for binding parS DNA” value is not above 0.2.

Turning to TRIY, the “one-hybrid fitness for binding parS DNA” value was not above 0.2.

Take HIWM: the “one-hybrid fitness for binding parS DNA” value was not above 0.2.

As to RHNS, the “one-hybrid fitness for binding parS DNA” value is 0.864.

On to TFTP, for which the “one-hybrid fitness for binding parS DNA” value was not above 0.2.

On to LRIC, for which the “one-hybrid fitness for binding parS DNA” value is not above 0.2.

TTRW: the “one-hybrid fitness for binding parS DNA” value is not above 0.2.

For the variant RCAW, the “one-hybrid fitness for binding parS DNA” value is 0.24.

In the case of RSAM, the “one-hybrid fitness for binding parS DNA” value worked out at 0.304.

As to KMRR, the “one-hybrid fitness for binding parS DNA” value is not above 0.2.

Take EMKG: the “one-hybrid fitness for binding parS DNA” value was not above 0.2.

With APSL, the “one-hybrid fitness for binding parS DNA” value was not above 0.2.

As for NWYY, the “one-hybrid fitness for binding parS DNA” value is not above 0.2.

As to QSMC, the “one-hybrid fitness for binding parS DNA” value was not above 0.2.

Turning to SDVP, the “one-hybrid fitness for binding parS DNA” value was not above 0.2.

As to VMAI, the “one-hybrid fitness for binding parS DNA” value was not above 0.2.

As to ATAL, the “one-hybrid fitness for binding parS DNA” value was not above 0.2.

Regarding PTKN, the “one-hybrid fitness for binding parS DNA” value is not above 0.2.

On to AYCY, for which the “one-hybrid fitness for binding parS DNA” value was not above 0.2.

Regarding HAHT, the “one-hybrid fitness for binding parS DNA” value was not above 0.2.

With MVQG, the “one-hybrid fitness for binding parS DNA” value is not above 0.2.

Take PVHH: the “one-hybrid fitness for binding parS DNA” value is not above 0.2.

As to QAAP, the “one-hybrid fitness for binding parS DNA” value was not above 0.2.

Consider FPQW, for which the “one-hybrid fitness for binding parS DNA” value is not above 0.2.

Take SCFF: the “one-hybrid fitness for binding parS DNA” value is not above 0.2.

Regarding TDHI, the “one-hybrid fitness for binding parS DNA” value is not above 0.2.

On to CMGA, for which the “one-hybrid fitness for binding parS DNA” value is not above 0.2.
